The source gives no read counts; variants with many changes may rest on few reads.
B1: LINE1-mini (parent)
chain: GGCAGAGCUCAACACAGCGUGGCAAAGUGGCUGUGGCUAGACUGCC

Variants of: B1
Test: self-cleavage, relative activity (ratio to wild type); higher = more cleavage; in vitro, sequencing; the parent is a self-cleaving ribozyme

Q: With GCCAGGGCUCAACACAGCGUGGCAAAGUAGCUCUGGCUAGACUGCC as the variant, how does the self-cleavage read?
A: 0.03

Q: For GCCAGAGCUCGACACAGCGUGGCAAAGUGUCUGUGGCUAGACUGCC, which self-cleavage is on record?
A: 0.02

Q: Which self-cleavage does the source give for GCCAGAGCUCGACACAGCGUGGCAAAGUGACUGUGGCUAGACUGCC here?
A: 0.01

Q: Which self-cleavage does the source give for GCCAGAGCUCGACACAGCGUGGCAAAGUGCCUGUGGCUAGACUGCC here?
A: 0.02

Q: With GCCAGUGCUCAACACAGCGUCGCAAAGUGGCUGUGGCUAGAGUGCC as the variant, how does the self-cleavage read?
A: 0.03

Q: For GCCAGAGCUCGACACAGCGAGGUAAGGUGGCUGUGGCUAGACUGCC, which self-cleavage is on record?
A: 0.01

Q: For GCCAGGGCUCAACACAGCGUGGCAAAGUGGCUGGGGCUAGACUGCC, which self-cleavage is on record?
A: 0.01

Q: For GCCAGGGCUCAACACCGCGUGGCAAAAUGGCUGUGGCUAGACGGCA, which self-cleavage is on record?
A: 0.01

Q: With GCCAGGGCUCAACACAGCGUCGCAAAGUGGCUGUGGCUAGACUGCC as the variant, how does the self-cleavage read?
A: 0.04

Q: For GCCAGAGCUCCACACAGCGUGGCAAAGUGGCCGUGGCUAGACUGCC, which self-cleavage is on record?
A: 0.02

Q: With GCCUGAGCUCAACACAGCGUGGCAAAGUGGCCGUGGAUAGACUGCC as the variant, how does the self-cleavage read?
A: 0.03

Q: Which self-cleavage does the source give for GCCGGAGCUCAACACAGCGUGUCAAAGUGGCUGUGGCUAGACUGCC here?
A: 0.54

Q: Which self-cleavage does the source give for GCCUGAGCUCAACACAGCGUGGCAAAGUGGUUGUGGCUAAACUGCC here?
A: 0.04

Q: With GCCAGCGCUCAACACAGUGUGGCAAAGUGGCUGUGGCUAGACUGCC as the variant, how does the self-cleavage read?
A: 0.13

Q: With GCCAGAGCUCCACACAGCGUCGCAAAGUGGCUGUCGCUAGACUGCC as the variant, how does the self-cleavage read?
A: 0.04

Q: For GCCUGAGCUCAACACGGCGUUGCAAAGUGGCUGGGGCUAGAAUGAC, which self-cleavage is on record?
A: 0.01

Q: With GCCAGAGCUCGACAAAGCGUGGUAAAGUGGCUGUGGCUAGAAUGCC as the variant, how does the self-cleavage read?
A: 0

Q: With GCCAGGGCUCAUCACAGCGUGGCAAACUGGCUGUGGCUAGACAGCC as the variant, how does the self-cleavage read?
A: 0.01

Q: With GCCAGAGCUCGAUACAGCGUGGCAACGUGGCUGUGGUUAGACUGCC as the variant, how does the self-cleavage read?
A: 0.03

Q: Which self-cleavage does the source give for GCCAGAGCUCGACACAUCGUGGCAAAGUGGCUGUGGCUAGACCGCC here?
A: 0.01

Q: Which self-cleavage does the source give for GCCAGCGCUCAACACACCGUGGCGCAGUGGCUGUGGCUAAACUGCC here?
A: 0.04

Q: For GCCAGAGCUCGACACAGCGUGCCAAAGUGGCUGUGGCUAGACUGCC, which self-cleavage is on record?
A: 0.01

Q: With GCCAGCGCAGAACACAGCGUGGCAUAGUGGCUGUGGCUAGACUGCC as the variant, how does the self-cleavage read?
A: 0.02

Q: Which self-cleavage does the source give for GCCGGAGCUCAACACAGCGUGGCAACGUGGCUGUGGCUAGACUGCC here?
A: 0.08

Q: With GCCUGAGCUCAACACAGCGUGGUAAAGUGGCUGUCGCUAGACUGCC as the variant, how does the self-cleavage read?
A: 0.04

Q: Which self-cleavage does the source give for GCCUGAGCUCAACACAGUGUGGCUAAGUGGCUGUGGCUAGACUGCC here?
A: 0.13

Q: With GCCAGAGCUCGACACAGCGUGGCAAAGUGGUUGUGGCUAGACUGCC as the variant, how does the self-cleavage read?
A: 0.02

Q: Which self-cleavage does the source give for GCCAGAGCUCGACACAGCGUGGCAAAGUGACUAUGGCUAGACUGCC here?
A: 0.01

Q: Which self-cleavage does the source give for GCCAGGUCUCAACACAGCGUGGCAAAGUGGCUGUGGCUAGACUGCC here?
A: 0.03

Q: For GCCAGUGCUCAACACAGCGUCGCAAAGUGGCUGUGGCUAGACUGCC, which self-cleavage is on record?
A: 0.08

Q: Which self-cleavage does the source give for GCCAGCGCUCAAUACAGCGUGGCAAAGUGGCUAUGCCUAGACUGCC here?
A: 0.02

Q: For GCCAGCGCUCAACAUAGCGUGGCAAAGUGGCUGUGGCUAGACUGCC, which self-cleavage is on record?
A: 0.11

Q: For GCCGGAGGUCAACACAGCUUGGGAUAGUGGCUGUGACUAGACUGCC, which self-cleavage is on record?
A: 0.06

Q: For GCCAGAGCUCCACCCAGCGUGGCAAAGUGGCUGUGGCUAGACUGCC, which self-cleavage is on record?
A: 0.01

Q: For GCCUGAGCUCUACACAGCGUGGCAAUGUGGAUGUGGCUAGACUGCC, which self-cleavage is on record?
A: 0.03

Q: Which self-cleavage does the source give for GCCUUAUCUCAAGACAGAUUAGCAAAGUGGCUGUGGCUAGAUUGCC here?
A: 0.06

Q: With GCCAGCGAUCUACACAGCGUGGCAAAGUGGCUGUGGCUAGACUGCC as the variant, how does the self-cleavage read?
A: 0.02

Q: Which self-cleavage does the source give for GCCAGCGCUCCACACAGCGUGGCAAAGUGGCUGUGGCUAGAGUGCC here?
A: 0

Q: With GCCUGAGUUCAACACAGCGUGGCAAAGUGGCUGUGGCUAGACUGCC as the variant, how does the self-cleavage read?
A: 0.02

Q: Which self-cleavage does the source give for GCCUGAGCUAAACACAGCGUGGUAAAGUGGCUGUGGCCAGACUGCC here?
A: 0.02

Q: Which self-cleavage does the source give for GCCUGAGCUCUACACAGUGUGGCAAAGUGGCUGCGGCUAGACUGCC here?
A: 0.01

Q: For GCCAGAGCUCCAAACAGCGUGGCAAAGUGCCUGUGGCUAGACUGCC, which self-cleavage is on record?
A: 0.09

Q: Which self-cleavage does the source give for GCCGGAGCACAACACAGCGUGGCAAAGGGGCUGUGGCUAGACUGCC here?
A: 0.02

Q: For GCCAGCGCUCAACACAGCGGGCCAAAGUGGCUGUGGCUAGACUGCC, which self-cleavage is on record?
A: 0.02

Q: With GCCAGAGCUCUACACAGCGUGGCUAAGUGGCUGUGGCUAGACUGCC as the variant, how does the self-cleavage read?
A: 0.03

Q: Which self-cleavage does the source give for GCCAGUGCUCAACACAACGUGGCAAAGUGGCUGUAGCUCGACUGCC here?
A: 0.03

Q: Which self-cleavage does the source give for GCCAGGGCUCAACACGGCGUGGCAAAGUGGUUGUGGCUAGAAUGCC here?
A: 0.03

Q: For GCCAGAGCUCGACACAGCGUGGCCAAGUGUCUGUGGCUAUCCUGCA, which self-cleavage is on record?
A: 0.01

Q: Which self-cleavage does the source give for GCCUGAGUUCUACACAGCGUGACAAAGAGGCUGGGGCUAGACUACC here?
A: 0

Q: Which self-cleavage does the source give for GCCGGAGCUCAACACAGCGUGGCAAAAUGGCUGUGGCUGGACUGCC here?
A: 0.01

Q: With GCCUGAGCUCAACACAGCGUGGCAAAGUAGCUGUGGCUAGAGUCCC as the variant, how does the self-cleavage read?
A: 0.03

Q: For GCCAGAGCUCGACACAGCGUGGCAAAGUGGCUGUGGCUAGACUGUC, which self-cleavage is on record?
A: 0.02

Q: For GCCAGAGCUCCAGACAGCGUGGCAAAGUGGCUGUGGCCAGACUGCC, which self-cleavage is on record?
A: 0.01

Q: For GCCUGAGAUCAACACAGCGUGGCAAAGCGGCUGUGGCUAGACUGCC, which self-cleavage is on record?
A: 0.04

Q: With GCCUGAGCUCAACACAGCGUGGCAAAGUGGCUGUGGCUAGACUGGC as the variant, how does the self-cleavage read?
A: 0.05

Q: Which self-cleavage does the source give for GCCAGUGCUCGACACAGCGUGGCAAAGUGGGUGUGGCUAGACUGCC here?
A: 0.01
